PubChem BioAssay AID1347073 (National Center for Advancing Translational Sciences (NCATS), 2019)
The campaign covered roughly 45,000 compounds. About 200 (0.44%) were called active. Not shown: some 7% with an inconclusive outcome. Calls follow the shape of the dose curve; as a rule, active = well fitted activation curve with a large enough effect; inconclusive = small, poorly fitted or top-dose-only effect; inactive = no such curve, though single readings can be large or run the other way. The list shows a part of the results.

Test: qHTS of TDP-43 Inhibitors: NCGC Sytravon Library Screen; also: 0% is about no effect; nearly all actives have a fitted effect of over 55% in size
Conditions: yeast TDP-43 toxicity rescue, BacTiter-Glo growth, 24 h; series mostly up to 46.1 µM; growth rescue (activation): at the top concentration
Outline: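 TDP-43-expressing yeast, pregrown in raffinose, seeded at OD600 0.02 in galactose medium with compound for 24 hr at 30 deg C. Growth read by BacTiter-Glo luminescence, so rescue of toxicity appears as activation.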

| SMILES | growth rescue (activation) |
| --- | --- |
| COc1cccc(C(=O)Nc2c[nH]c(=O)[nH]c2=O)c1 | inactive: 31.4% |
| COC(=O)c1ccc(OC)c(CN2CCCN(Cc3ccc(F)cc3)S2(=O)=O)c1 | inactive: -3.16% |
| CCOc1ccccc1N1CCN(C/C=C/c2ccc(N(C)C)cc2)CC1 | inactive: 13% |
| COCCn1c(C)nnc1SCC(=O)NNC(=O)c1ccc(Cl)cc1 | inactive: -3.82% |
| COc1ccc(CNS(=O)(=O)NCc2ccc(OC)c(OC)c2)cc1OC | inactive: -16.9% |
| NS(=O)(=O)c1ccc(NC(=S)Nc2ccc(S(=O)(=O)N3CCCC3)cc2)cc1 | inactive: -6.31% |
| CC(=O)Nc1ccc(S(=O)(=O)NNC(=O)c2cccc(Br)c2)cc1 | inactive: 9.9% |
| CC1Cc2ccccc2N1CC(=O)Nc1ccc(N2CCOCC2)cc1 (centres undefined) | inactive: 8.09% |
| CCSc1nnc(NC(=O)c2nc(S(=O)(=O)Cc3ccc(F)cc3)ncc2Cl)s1 | inactive: -2.59% |
| C/C(=N\NC(=O)c1ccn(C)n1)c1ccco1 | inactive: -4.81% |
| COc1ccc(CNC(=O)CN(C)S(=O)(=O)c2ccc(Br)s2)cc1 | inactive: -5.07% |
| CC(CN1C(C)CCCC1C)OC(=O)c1ccccc1Br (centres undefined) | inactive: 5.72% |
| O=C(CSc1nnc2c(n1)[nH]c1ccc(S(=O)(=O)N3CCOCC3)cc12)Nc1ccc(F)c(F)c1 | inactive: 27.7% |
| O=C(Nc1cc2c(cc1C(=O)c1ccc(Br)cc1)OCCO2)c1ccc(Cl)cc1 | inactive: -0.281% |
| CC(C)c1ccc(N(CC(=O)N2CCN(Cc3ccccc3)CC2)S(C)(=O)=O)cc1 | inactive: -21.8% |
| Cc1ccccc1S(=O)(=O)NC(=O)C1(C)CCN1C(=O)CCc1ccccc1 (centres undefined) | inactive: -12.4% |
| CSc1ccc(CN2CCC2(C)C(=O)NCc2ccc3c(c2)OCO3)cc1 (centres undefined) | inactive: 8.29% |
| COC(=O)c1ccc(/C=C/c2nc3ccccc3c(=O)[nH]2)cc1 | inactive: 8.74% |
| Cc1cc(C)c2c(N)c(C(=O)c3ccc(Br)cc3)oc2n1 | inactive: 17.9% |
| Cn1c(=O)[nH]c(=O)c2c1nc(NCCCn1ccnc1)n2CCOc1ccccc1 | inactive: 12% |
| Cc1ccc(N2CC(=O)N(CC(=O)O)C2=O)cc1 | inactive: -1.19% |
| NC(=O)NC(Cc1ccccc1)C(=O)N1CCN(S(=O)(=O)c2ccc(Cl)cc2)CC1 (centres undefined) | inactive: 6.16% |
| CCOc1ncccc1C(=O)Nc1ccc(S(=O)(=O)Nc2nccs2)cc1 | inactive: 28.3% |
| COc1cccc(CNC(=S)Nc2ccc3c(c2)c(=O)n(C)n3Cc2ccc(F)cc2)c1 | inactive: -5.08% |
| CCCCn1c(N)c(N(CC)C(=O)c2ccccc2C)c(=O)[nH]c1=O | inactive: 10.5% |
| COc1ccccc1N(CN1C(=O)c2ccccc2C1=O)C(=O)c1cccc(C)c1 | inactive: 3.49% |
| CN(C)/C=C1\C(=O)N(C)N=C1C(F)(F)F | inactive: 5.29% |
| COc1ccc(NC(=O)C2CCCN2C(=O)NC2CCCCC2)c(OC)c1 (centres undefined) | inactive: 10.1% |
| Cc1cccc(NC(=O)N2C3CCCC2CC(NC(=O)C2CC2)C3)c1 (centres undefined) | inactive: -22% |
